In patent US12637513B2, “Method of treating cancer by administering an inhibitor of erythropoietin receptor activity comprising either erythropoietin receptor or erythropoietin protein” (ImmunEdge, Inc., priority 2022, dated 2026):

Legend:
Settings in all cases: hybridoma supernatants; 30 nM soluble receptor
EPOR-Fc = molecular target: T1, EPOR-Fc (Homo sapiens, UniProt P19235); assay: Bio-layer interferometry (Octet) binding of hybridoma antibodies to EPOR-Fc
T1 construct: The extracellular domains of EPOR or CD131 are produced as soluble Fc fusion proteins; purchased Sino Biological 10707-H02H
T1 sequence (P19235 25-250 limits assumed): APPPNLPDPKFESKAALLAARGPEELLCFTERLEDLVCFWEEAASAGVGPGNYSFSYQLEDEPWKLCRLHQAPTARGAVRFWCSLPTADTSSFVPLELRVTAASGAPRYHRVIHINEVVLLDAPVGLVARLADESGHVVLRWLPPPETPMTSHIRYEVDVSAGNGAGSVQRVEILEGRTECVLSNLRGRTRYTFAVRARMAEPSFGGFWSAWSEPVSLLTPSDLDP
From the text: (§1) The B cells from ATX-GK mice were fused with mouse myeloma cells to generate hybridoma. The hybridoma cells were screened twice. In the first screening, 293 cells expressing human EPOR, human CD131, or both were used as the primary screen. 87 hybridoma antibodies have been isolated by positive staining on 293T cells expressing human EPOR (hEPOR), human CD131 (hCD131), or both, with the hybridoma supernatants (Table 11 and FIG. 17). Expression of EPOR and CD131 was confirmed by flow cytometry with Phycoerythrin (PE)-labeled anti-EPOR (R&D Systems, Cat #FAB307P) and Alexa Fluor® 647 (AF647)-labeled anti-CD131 (BD Biosciences, Cat #564191), respectively (FIG. 28B). All hybridoma clones were purified and sequenced. Binding kinetics with soluble hetero-EPOR (EPOR-CD131-Fc), soluble EPO receptor subunit of hetero-EPOR (EPOR-Fc), and soluble CD131 subunit of hetero-EPOR (CD131-Fc) were measured using bio-layer interferometry (Octet®) by capturing the hybridoma antibodies in the supernatants on biosensors coated with anti-mouse Fc first and dipping the biosensors into the solutions containing 30 nM of the soluble receptor Fc fusion proteins. The supernatants were also used to block the interaction between EPO and EPOR. The soluble EPOR-CD131-Fc was first captured on biosensors coated with anti-human Fc and then dipped into 10 nM of EPO with or without the hybridoma supernatants. […]

[1] = molecular target: T2, soluble hetero-EPOR (EPOR-CD131-Fc) (Homo sapiens, UniProt P19235+P32927); assay: Bio-layer interferometry (Octet) binding of hybridoma antibodies to EPOR-CD131-Fc
T2 construct: Chimeric Fc fusion proteins of the extracellular domains of human EPOR and human CD131; purchased Sino Biological CT010-H02H
T2 sequence (P19235 25-250 limits assumed): T1 sequence (P19235 25-250 limits assumed)
T2 sequence (P32927 17-443 limits assumed): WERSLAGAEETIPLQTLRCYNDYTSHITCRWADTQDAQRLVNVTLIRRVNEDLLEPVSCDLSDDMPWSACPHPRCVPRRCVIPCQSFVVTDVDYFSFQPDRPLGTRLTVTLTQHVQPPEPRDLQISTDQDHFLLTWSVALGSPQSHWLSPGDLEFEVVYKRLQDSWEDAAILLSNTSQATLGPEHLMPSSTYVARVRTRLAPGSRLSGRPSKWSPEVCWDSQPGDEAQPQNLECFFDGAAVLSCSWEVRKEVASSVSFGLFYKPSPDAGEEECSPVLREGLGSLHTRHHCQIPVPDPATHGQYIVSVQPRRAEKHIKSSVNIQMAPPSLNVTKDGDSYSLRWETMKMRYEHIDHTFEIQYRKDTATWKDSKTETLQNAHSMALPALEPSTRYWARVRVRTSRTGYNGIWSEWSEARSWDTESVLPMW
From the text: as §1

CD131-Fc = molecular target: T3, CD131-Fc (Homo sapiens, UniProt P32927); assay: Bio-layer interferometry (Octet) binding of hybridoma antibodies to CD131-Fc
T3 construct: The extracellular domains of EPOR or CD131 are produced as soluble Fc fusion proteins; made in house
T3 sequence (P32927 17-443 limits assumed): T2 sequence (P32927 17-443 limits assumed)
From the text: as §1

B1: EPORab - M26: hybridoma antibody clone, VH/VK in Table 10 (antibody, V domains shown)
VH: QVQLVQSGVEVKKPGASVKVSCKASGYAFSNNDISWVRQAPGQGLEWMAWITTSNGNTNYAPKLQGRVTMTTDTSTSTAYMELRSLKSDDTAVYYCARGGRTGYFDYWGQGTLVTVSS
VL: [left out - about 100 residues]QIPLTFGGGTKVEIR
high affinity: binding to EPOR-Fc (EPOR-Fc) | binding to EPOR-CD131-Fc [1] | binding to CD131-Fc (CD131-Fc)
